{"source": "paper PMC4336329", "about": "(PLoS ONE, 2015)", "note": "Hit rate of the full screen: of about 310,000 compounds, about 2,200 (0.71%) showed an effect of 50% or more. The effect is printed as a negative number. This is one part of the list."}
{"target": "human ether-à-go-go-related gene (hERG) potassium channel (human, UniProt Q12809)", "sequence (Q12809 whole entry, looked up)": "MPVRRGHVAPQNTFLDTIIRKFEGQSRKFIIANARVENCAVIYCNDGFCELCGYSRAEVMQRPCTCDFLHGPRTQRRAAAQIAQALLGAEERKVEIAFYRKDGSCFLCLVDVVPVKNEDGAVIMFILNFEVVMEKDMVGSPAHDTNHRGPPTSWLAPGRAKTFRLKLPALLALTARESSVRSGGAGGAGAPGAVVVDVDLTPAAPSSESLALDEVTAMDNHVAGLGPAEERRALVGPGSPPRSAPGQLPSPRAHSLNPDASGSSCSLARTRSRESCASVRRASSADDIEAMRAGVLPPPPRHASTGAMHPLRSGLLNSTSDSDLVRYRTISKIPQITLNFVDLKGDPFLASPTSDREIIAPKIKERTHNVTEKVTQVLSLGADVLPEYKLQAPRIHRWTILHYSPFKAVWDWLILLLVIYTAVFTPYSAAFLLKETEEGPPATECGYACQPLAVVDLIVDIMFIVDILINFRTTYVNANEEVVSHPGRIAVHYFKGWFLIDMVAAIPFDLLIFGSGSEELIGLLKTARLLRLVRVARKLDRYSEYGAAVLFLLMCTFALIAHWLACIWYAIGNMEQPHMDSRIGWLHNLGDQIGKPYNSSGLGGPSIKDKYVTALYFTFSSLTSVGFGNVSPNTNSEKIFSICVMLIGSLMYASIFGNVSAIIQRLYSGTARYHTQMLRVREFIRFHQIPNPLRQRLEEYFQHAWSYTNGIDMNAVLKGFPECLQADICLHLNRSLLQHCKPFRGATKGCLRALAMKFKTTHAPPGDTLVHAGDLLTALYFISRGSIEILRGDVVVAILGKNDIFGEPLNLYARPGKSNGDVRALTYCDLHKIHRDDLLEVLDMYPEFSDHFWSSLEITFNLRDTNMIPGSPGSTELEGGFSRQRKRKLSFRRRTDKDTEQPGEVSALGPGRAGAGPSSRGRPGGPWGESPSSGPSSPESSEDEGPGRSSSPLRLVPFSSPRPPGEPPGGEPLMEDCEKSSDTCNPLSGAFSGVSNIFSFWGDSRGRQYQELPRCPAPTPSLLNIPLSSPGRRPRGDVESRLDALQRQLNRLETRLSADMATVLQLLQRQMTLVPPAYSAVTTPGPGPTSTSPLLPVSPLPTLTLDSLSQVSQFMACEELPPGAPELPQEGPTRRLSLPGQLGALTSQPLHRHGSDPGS", "test": "primary screen, population patch clamp on CHO cells stably expressing hERG", "units": {"hERG current change (%, negative = inhibition) at 1uM": "%"}}
{"smiles": "Cn1c(SCC(=O)N2CCCCC2)nc2cccnc21", "hERG current change (%, negative = inhibition) at 1uM": 15.3}
{"smiles": "COc1ccc(CN2C(=O)c3c(c(C)n(C)c3C)C2C(=O)NC2CCC(C)CC2)cc1", "note": "(stereo not shown)", "hERG current change (%, negative = inhibition) at 1uM": 8.33}
{"smiles": "Cc1ccc(S(=O)(=O)N(CCC(=O)O)c2ccccc2)cc1", "hERG current change (%, negative = inhibition) at 1uM": 4.11}
{"smiles": "Cc1ccc(CNC(=O)c2cc(-c3ccccc3)nn2Cc2cc(C)no2)cc1", "hERG current change (%, negative = inhibition) at 1uM": 11}
{"smiles": "O=C1/C(=C/c2cccnc2)SC(=NCc2ccccc2)N1Cc1ccccc1", "hERG current change (%, negative = inhibition) at 1uM": 12.4}
{"smiles": "Nc1c(C(=O)O)ccc2c1C(=O)c1ccccc1C2=O", "hERG current change (%, negative = inhibition) at 1uM": 10.7}
{"smiles": "Cc1ccc(C)c(NC(=O)Cn2nnc(C(=O)Nc3c(C)cccc3C)c2N)c1", "hERG current change (%, negative = inhibition) at 1uM": -0.358}
{"smiles": "COc1ccc(NC(=S)NCC2CCCO2)c(C)c1", "note": "(stereo not shown)", "hERG current change (%, negative = inhibition) at 1uM": 4.6}
{"smiles": "CCC(=O)N1CCc2cc(S(=O)(=O)N3CCCC3)ccc21", "hERG current change (%, negative = inhibition) at 1uM": 20.3}
{"smiles": "Clc1cccc(Cl)c1CSc1nnc(/C=C/c2ccccc2)o1", "hERG current change (%, negative = inhibition) at 1uM": 14.2}
{"smiles": "O=C(Nc1cc(Br)ccc1O)c1cc(-c2cccs2)on1", "hERG current change (%, negative = inhibition) at 1uM": 2.24}
{"smiles": "CCOc1ccc(S(=O)(=O)N(C(=O)c2ccco2)c2cc3sc(=O)oc3c3ccccc23)cc1", "hERG current change (%, negative = inhibition) at 1uM": 13}
{"smiles": "COc1ccc(-n2cnc3sc4c(c3c2=O)CCCC4)cc1", "hERG current change (%, negative = inhibition) at 1uM": 13.6}
{"smiles": "Cc1ccc(NC(=O)Nn2cnnc2)c(C)c1", "hERG current change (%, negative = inhibition) at 1uM": 15.2}
{"smiles": "CC(O)CNC(=O)c1ccc(-c2nn(C)c(=O)c3ccccc23)cc1", "note": "(stereo not shown)", "hERG current change (%, negative = inhibition) at 1uM": 3.91}
{"smiles": "Cc1ccc([N+](=O)[O-])cc1S(=O)(=O)Nc1cccc(-c2ccc(N3CCCC3)nn2)c1", "hERG current change (%, negative = inhibition) at 1uM": 15.7}
{"smiles": "Cc1ccc(CSc2nnc(-c3ccc4c(c3)OCO4)o2)cc1", "hERG current change (%, negative = inhibition) at 1uM": 4.61}
{"smiles": "Cc1ccc(NC(=O)C2CCN(C(=O)N3CCOc4ccccc43)CC2)cc1", "hERG current change (%, negative = inhibition) at 1uM": 13.3}
{"smiles": "Cc1[nH]c2ccccc2c1C(=O)CNc1nccs1", "hERG current change (%, negative = inhibition) at 1uM": 2.35}
{"smiles": "CCOC(=O)C1=C(C)C(c2ccccc2OC)NC(=O)N1", "note": "(stereo not shown)", "hERG current change (%, negative = inhibition) at 1uM": 15.8}
{"smiles": "COc1ccc(NC(=S)Nc2ncccc2C)cc1OC", "hERG current change (%, negative = inhibition) at 1uM": 14.1}
{"smiles": "CCCCNC(=O)Nc1cc(C(=O)OC)ccc1C", "hERG current change (%, negative = inhibition) at 1uM": 9.29}
{"smiles": "Cc1cc(C)n(-c2nc3ccccc3nc2Nc2ccc(CC(=O)O)cc2)n1", "hERG current change (%, negative = inhibition) at 1uM": 9.35}
{"smiles": "CC(Oc1ccc2ccc(=O)oc2c1)C(=O)NCCN1CCOCC1", "note": "(stereo not shown)", "hERG current change (%, negative = inhibition) at 1uM": 7.43}
{"smiles": "CSC1=NC(C)(C)C=C(/C=C/c2ccc(Cl)cc2Cl)N1", "hERG current change (%, negative = inhibition) at 1uM": 11.8}
{"smiles": "Cc1ccccc1C(=O)N[C@H](C(=O)OCC(=O)c1ccc[nH]1)C(C)C", "hERG current change (%, negative = inhibition) at 1uM": -1.23}
{"smiles": "Cc1ccccc1N1C(=O)[C@@H]2Cc3ccccc3CN2C1=O", "hERG current change (%, negative = inhibition) at 1uM": 8.41}
{"smiles": "Cc1ccc(CC(=O)Nc2ccc(F)c([N+](=O)[O-])c2)cc1C", "hERG current change (%, negative = inhibition) at 1uM": 14.4}
{"smiles": "CCc1c(C)nc(SCC(=O)N2CCCCC2)[nH]c1=O", "hERG current change (%, negative = inhibition) at 1uM": 9.89}
{"smiles": "CCCNC(=O)C1CC(=O)N(c2ccc(OCc3ccc(F)cc3)cc2)C1", "note": "(stereo not shown)", "hERG current change (%, negative = inhibition) at 1uM": 14.3}
{"smiles": "CCCC(C)NC(=O)COc1ccc(S(=O)(=O)c2ccc(OCC(=O)NC(C)CCC)cc2)cc1", "note": "(stereo not shown)", "hERG current change (%, negative = inhibition) at 1uM": 6.05}
{"smiles": "COc1ccc(S(=O)(=O)N2CCC(C(=O)NCC3CCCO3)CC2)cc1Cl", "note": "(stereo not shown)", "hERG current change (%, negative = inhibition) at 1uM": 15.1}
{"smiles": "CC(C)(CO)CNC(=O)c1ccc(OC2CCN(C(=O)C3CC3)CC2)cc1", "hERG current change (%, negative = inhibition) at 1uM": 7.96}
{"smiles": "CC(C)CCOc1ccc(C(=O)NCC(c2ccco2)N(C)C)cc1", "note": "(stereo not shown)", "hERG current change (%, negative = inhibition) at 1uM": 13}
{"smiles": "Cc1ccccc1NC(=O)c1cccc(C(=O)Nc2ccccc2C)c1", "hERG current change (%, negative = inhibition) at 1uM": 5.58}
{"smiles": "O=C(O)c1ccc2c(c1)C(=O)N(N1C(=O)c3ccccc3C1=O)C2=O", "hERG current change (%, negative = inhibition) at 1uM": -0.831}
{"smiles": "CCC(C)NC(=O)N1c2ccccc2Sc2ccccc21", "note": "(stereo not shown)", "hERG current change (%, negative = inhibition) at 1uM": 6.52}
{"smiles": "CC(C)(C)c1cc(C(=O)N/N=C/c2ccco2)n[nH]1", "hERG current change (%, negative = inhibition) at 1uM": 17.3}
{"smiles": "COCc1ccc(CN2CCCC(C(=O)c3sccc3C)C2)o1", "note": "(stereo not shown)", "hERG current change (%, negative = inhibition) at 1uM": 8.68}
{"smiles": "CCCCc1ccc(NC(=S)N2CCN(c3ncccn3)CC2)cc1", "hERG current change (%, negative = inhibition) at 1uM": 12.8}
{"smiles": "O=C(CCC(=O)N1CCOc2ccc(Cl)cc21)N1CCC2(CC1)OCCO2", "hERG current change (%, negative = inhibition) at 1uM": 3.97}
{"smiles": "O=C(Nc1nccs1)c1cc2c(s1)-c1ccccc1OC2", "hERG current change (%, negative = inhibition) at 1uM": 15.8}
{"smiles": "CCC(=NCCOc1ccc(Cl)cc1)c1c(O)n(C)c(=O)n(C)c1=O", "hERG current change (%, negative = inhibition) at 1uM": 8.31}
{"smiles": "COc1ccccc1N1CCN(C2=CC(=O)CCC2)CC1", "hERG current change (%, negative = inhibition) at 1uM": 8.25}
{"smiles": "Cn1c(NCCCN2CCOCC2)nc2c1c(=O)n(Cc1ccc(Cl)c(Cl)c1)c(=O)n2C", "hERG current change (%, negative = inhibition) at 1uM": -10.3}
{"smiles": "O=C(CSc1ccsc1[N+](=O)[O-])N1CCCCCC1", "hERG current change (%, negative = inhibition) at 1uM": 15.7}
{"smiles": "c1ccc(N2CCN(c3nc4cc5c(cc4s3)OCCO5)CC2)cc1", "hERG current change (%, negative = inhibition) at 1uM": 0.592}
{"smiles": "Nn1c(SCC(=O)N2CCOCC2)nnc1-c1ccc(Cl)cc1Cl", "hERG current change (%, negative = inhibition) at 1uM": 6.43}
{"smiles": "COc1cccc(CN2CCN(C(=O)c3cc(-c4cccnc4)nc4ccc(C)cc34)CC2)c1", "hERG current change (%, negative = inhibition) at 1uM": 5.22}
{"smiles": "COc1ccc2cc(C(=O)N3CCN(c4cccc(C)c4C)CC3)[nH]c2c1", "hERG current change (%, negative = inhibition) at 1uM": 0.912}
{"smiles": "COc1ccc(NCc2nnc(SCC(=O)Nc3cc(C)cc(C)c3)o2)cc1", "hERG current change (%, negative = inhibition) at 1uM": 5.1}
{"smiles": "Cc1ccc(CSCC(=O)NCCc2ccccc2)cc1", "hERG current change (%, negative = inhibition) at 1uM": 10.7}
{"smiles": "CCOC(=O)Nc1ccc2c(c1)ncn2C1CCCCC1", "hERG current change (%, negative = inhibition) at 1uM": 0.84}
{"smiles": "O=C1OCCC1Sc1nnc(-c2ccccc2Br)n1Cc1ccccc1", "note": "(stereo not shown)", "hERG current change (%, negative = inhibition) at 1uM": -1.27}
{"smiles": "Cl.NCCC(=O)N1c2ccccc2Sc2ccccc21", "hERG current change (%, negative = inhibition) at 1uM": 9.1}
{"smiles": "COc1ccc(/C(N)=N/OC(=O)CCCc2ccccc2)cc1", "hERG current change (%, negative = inhibition) at 1uM": 10.6}
{"smiles": "COc1cccc(C(=O)Oc2c(Br)cc(Br)cc2/C=N/NC(=O)c2cc(C)[nH]n2)c1", "hERG current change (%, negative = inhibition) at 1uM": 8.81}
{"smiles": "COc1ccc(F)cc1Cn1nc(C(=O)O)c2ccccc2c1=O", "hERG current change (%, negative = inhibition) at 1uM": 16.4}
